# Laboratory results as given in paper PMC4336329 (PLoS ONE, 2015).
# In all, about 310,000 compounds went through this assay and about 14,000 (4.5%) showed an effect of 50% or more. The effect is printed as a negative number. Some of the results follow.
# Biological target: human ether-à-go-go-related gene (hERG) potassium channel (human, UniProt Q12809)
# Test: primary screen, population patch clamp on CHO cells stably expressing hERG
# 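Note: peak tail current of the secondary pulse compared with the same well before compound.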
# Chain of human ether-à-go-go-related gene (hERG) potassium channel (Q12809 whole entry, looked up): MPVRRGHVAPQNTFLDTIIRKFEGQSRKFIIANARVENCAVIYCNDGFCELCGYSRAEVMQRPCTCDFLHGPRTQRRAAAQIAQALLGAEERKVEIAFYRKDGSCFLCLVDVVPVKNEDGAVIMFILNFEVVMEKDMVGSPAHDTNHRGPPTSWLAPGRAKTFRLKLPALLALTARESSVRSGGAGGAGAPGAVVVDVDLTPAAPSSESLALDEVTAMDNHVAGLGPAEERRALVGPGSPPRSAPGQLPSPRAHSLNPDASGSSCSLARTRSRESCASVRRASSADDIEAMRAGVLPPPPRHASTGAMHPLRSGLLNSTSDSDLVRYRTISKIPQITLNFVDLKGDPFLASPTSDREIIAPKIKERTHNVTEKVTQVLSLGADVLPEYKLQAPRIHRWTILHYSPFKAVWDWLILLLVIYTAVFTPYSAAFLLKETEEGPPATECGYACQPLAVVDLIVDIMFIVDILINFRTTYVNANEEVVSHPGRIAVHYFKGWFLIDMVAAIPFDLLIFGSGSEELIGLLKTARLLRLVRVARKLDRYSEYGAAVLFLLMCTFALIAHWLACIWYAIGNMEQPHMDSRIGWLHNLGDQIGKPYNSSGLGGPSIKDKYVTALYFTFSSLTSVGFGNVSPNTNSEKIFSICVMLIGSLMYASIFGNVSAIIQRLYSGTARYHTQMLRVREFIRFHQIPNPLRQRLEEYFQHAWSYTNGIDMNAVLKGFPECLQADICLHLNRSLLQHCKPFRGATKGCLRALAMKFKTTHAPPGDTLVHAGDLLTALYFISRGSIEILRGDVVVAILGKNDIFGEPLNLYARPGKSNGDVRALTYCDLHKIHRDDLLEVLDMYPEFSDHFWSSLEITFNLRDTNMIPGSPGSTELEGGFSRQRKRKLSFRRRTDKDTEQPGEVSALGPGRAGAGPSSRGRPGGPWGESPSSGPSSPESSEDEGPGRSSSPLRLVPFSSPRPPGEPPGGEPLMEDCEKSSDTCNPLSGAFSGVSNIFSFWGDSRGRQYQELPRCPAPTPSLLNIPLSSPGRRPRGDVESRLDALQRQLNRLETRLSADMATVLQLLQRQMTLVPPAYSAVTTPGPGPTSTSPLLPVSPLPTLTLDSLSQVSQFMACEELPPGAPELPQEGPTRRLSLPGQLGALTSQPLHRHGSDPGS
row,SMILES,"hERG current change (%, negative = inhibition) at 10uM"
1,Cc1cc(NC(=O)CC(F)(F)F)n(-c2ccccc2)n1,16.3%
2,COc1cc2c(cc1O)[C@H](Cc1ccc(Oc3cc(C[C@@H]4NCCc5cc(OC)c(O)cc54)ccc3O)cc1)NCC2,-8.32%
3,COc1ccc(CC(=O)NNC(=O)[C@@H]2CCCC[C@@H]2C(=O)O)cc1,8.94%
4,COc1ccc(CN(CC2CCCO2)C(=O)c2cc3sccc3n2C)c(OC)c1 (centres unmarked),-32.9%
5,Cc1cc(C)cc(-n2nnnc2SCC(=O)Nc2nc(-c3ccc(Cl)cc3)cs2)c1,19.4%
6,Cc1ccc(N2C(=O)CSC2c2cccs2)cc1 (centres unmarked),-13.2%
7,O=c1c2ccccc2nc2c3ccccc3c(NCc3ccco3)nn12,-17.8%
8,CCOC(=O)c1cccc(NC(=O)CSc2nnc(COc3ccccc3)n2CC)c1,-51.3%
9,Cc1cccc(N2CCN(C(=O)C3CCCN(S(=O)(=O)c4c(C)noc4C)C3)CC2)c1C (centres unmarked),-22.3%
10,N#CC1=C(N)OC2=C(C(=O)CCC2)C1C1CC=CCC1 (centres unmarked),-7.67%
11,COc1ccc(-c2csc3ncnc(N4CCN(S(=O)(=O)c5ccc(C)cc5)CC4)c23)cc1,-3.07%
12,Cc1ccc(Nc2cc(C)nc3ncnn23)c(Cl)c1,-8.02%
13,CC(=O)n1c(-c2ccccc2)c(CO)c2ccccc21,-5.05%
14,CC(OC(=O)c1cc(Cl)ccc1[N+](=O)[O-])C(=O)NC(C)c1ccc(F)cc1 (centres unmarked),-29%
15,CC1(C)C(=O)Nc2ccccc2N1C(=O)COc1ccc(S(=O)(=O)N2CCOCC2)cc1Cl,3.13%
16,COc1ccc(CN2CCCC(N3CCc4ccccc4C3)C2)c(O)c1 (centres unmarked),-60.1%
17,O=C(N/N=C\c1cccc(F)c1)c1ccc(-c2ccccc2)cc1,27%
18,O=C(Nc1ccc2c(c1)OCCO2)c1cccc(C(=O)Nc2ccc3c(c2)OCCO3)c1,17%
19,COc1ccccc1CNC(=O)CN1C(=O)NC2(CCCc3ccccc32)C1=O (centres unmarked),4.78%
20,CN(C(=O)CSc1nnc(NCc2ccccc2)s1)C1CCS(=O)(=O)C1 (centres unmarked),-0.974%
21,O=C(COC(=O)c1cccc(S(=O)(=O)N2CCc3ccccc32)c1)NCc1ccco1,21.5%
22,O=C(Cc1ccc(Cl)cc1)NCc1nc(-c2ccccc2)no1,17.7%
23,CCC(C)(C)NC(=O)C(c1ccncc1)N(C(=O)c1sc(C)nc1C)c1ccc(C)cc1 (centres unmarked),20.3%
